# According to the supplement of paper PMC8728848:
# This is one part of the list.
# What was measured:
# Test in all cases: glycan array binding signal (z-score within array); higher = stronger binding
# Conditions in all cases: glycan notation: IUPAC condensed, linker removed
# Neu5Ac(a2-6)Gal(b1-4)Glc = molecular target: Neu5Ac(a2-6)Gal(b1-4)Glc
# Outline: (§1)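 The Consortium for Functional Glycomics database supplied 3228 glycan arrays, of which those lacking an available protein sequence were dropped. The binding signal, a within-array Z-score, was averaged across arrays of the same protein sequence and across linkers. Negative scores can be read as non-binding.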
# [1] = molecular target: Neu5Ac(a2-6)Gal(b1-4)GlcNAc
# Outline: as §1
# [2] = molecular target: Neu5Ac(a2-6)Gal(b1-4)GlcNAc(b1-2)Man
# Outline: as §1
# [3] = molecular target: Neu5Ac(a2-6)Gal(b1-4)GlcNAc(b1-2)Man(a1-3)Man(b1-4)GlcNAc(b1-4)GlcNAc
# Outline: as §1
# [4] = molecular target: Neu5Ac(a2-6)Gal(b1-4)GlcNAc(b1-2)Man(a1-3)[Gal(b1-4)GlcNAc(b1-2)Man(a1-6)]Man(b1-4)GlcNAc(b1-4)GlcNAc
# Outline: as §1
# [5] = molecular target: Neu5Ac(a2-6)Gal(b1-4)GlcNAc(b1-2)Man(a1-3)[GlcNAc(b1-2)Man(a1-6)]Man(b1-4)GlcNAc(b1-4)GlcNAc
# Outline: as §1
# [6] = molecular target: Neu5Ac(a2-6)Gal(b1-4)GlcNAc(b1-2)Man(a1-3)[GlcNAc(b1-4)][Neu5Ac(a2-6)Gal(b1-4)GlcNAc(b1-2)Man(a1-6)]Man(b1-4)GlcNAc(b1-4)GlcNAc
# Outline: as §1
# [7] = molecular target: Neu5Ac(a2-6)Gal(b1-4)GlcNAc(b1-2)Man(a1-3)[Man(a1-6)]Man(b1-4)GlcNAc(b1-4)GlcNAc
# Outline: as §1
# [8] = molecular target: Neu5Ac(a2-6)Gal(b1-4)GlcNAc(b1-2)Man(a1-3)[Neu5Ac(a2-3)Gal(b1-4)GlcNAc(b1-2)Man(a1-6)]Man(b1-4)GlcNAc(b1-4)GlcNAc
# Outline: as §1
# [9] = molecular target: Neu5Ac(a2-6)Gal(b1-4)GlcNAc(b1-2)Man(a1-3)[Neu5Ac(a2-6)Gal(b1-4)GlcNAc(b1-2)Man(a1-6)]Man(b1-4)GlcNAc(b1-4)GlcNAc
# Outline: as §1
# [10] = molecular target: Neu5Ac(a2-6)Gal(b1-4)GlcNAc(b1-2)Man(a1-3)[Neu5Ac(a2-6)Gal(b1-4)GlcNAc(b1-2)Man(a1-6)]Man(b1-4)GlcNAc(b1-4)[Fuc(a1-6)]GlcNAc
# Outline: as §1
# [11] = molecular target: Neu5Ac(a2-6)Gal(b1-4)GlcNAc(b1-2)Man(a1-6)Man(b1-4)GlcNAc(b1-4)GlcNAc
# Outline: as §1
# [12] = molecular target: Neu5Ac(a2-6)Gal(b1-4)GlcNAc(b1-2)Man(a1-6)[Gal(b1-4)GlcNAc(b1-2)Man(a1-3)]Man(b1-4)GlcNAc(b1-4)GlcNAc
# Outline: as §1
# [13] = molecular target: Neu5Ac(a2-6)Gal(b1-4)GlcNAc(b1-2)Man(a1-6)[GlcNAc(b1-2)Man(a1-3)]Man(b1-4)GlcNAc(b1-4)GlcNAc
# Outline: as §1
# [14] = molecular target: Neu5Ac(a2-6)Gal(b1-4)GlcNAc(b1-2)Man(a1-6)[Man(a1-3)]Man(b1-4)GlcNAc(b1-4)GlcNAc
# Outline: as §1
# [15] = molecular target: Neu5Ac(a2-6)Gal(b1-4)GlcNAc(b1-2)[Neu5Ac(a2-6)Gal(b1-4)GlcNAc(b1-4)]Man(a1-3)[GlcNAc(b1-4)][Neu5Ac(a2-6)Gal(b1-4)GlcNAc(b1-2)[Neu5Ac(a2-6)Gal(b1-4)GlcNAc(b1-6)]Man(a1-6)]Man(b1-4)GlcNAc(b1-4)GlcNAc
# Outline: as §1
# [16] = molecular target: Neu5Ac(a2-6)Gal(b1-4)GlcNAc(b1-2)[Neu5Ac(a2-6)Gal(b1-4)GlcNAc(b1-4)]Man(a1-3)[GlcNAc(b1-4)][Neu5Ac(a2-6)Gal(b1-4)GlcNAc(b1-4)Man(a1-6)]Man(b1-4)GlcNAc(b1-4)GlcNAc
# Outline: as §1
# [17] = molecular target: Neu5Ac(a2-6)Gal(b1-4)GlcNAc(b1-2)[Neu5Ac(a2-6)Gal(b1-4)GlcNAc(b1-6)]Man(a1-6)[Neu5Ac(a2-6)Gal(b1-4)GlcNAc(b1-2)Man(a1-3)][GlcNAc(b1-4)]Man(b1-4)GlcNAc(b1-4)GlcNAc
# Outline: as §1
# [18] = molecular target: Neu5Ac(a2-6)Gal(b1-4)GlcNAc(b1-3)Gal(b1-3)GlcNAc
# Outline: as §1
# [19] = molecular target: Neu5Ac(a2-6)Gal(b1-4)GlcNAc(b1-3)Gal(b1-4)GlcNAc
# Outline: as §1
# [20] = molecular target: Neu5Ac(a2-6)Gal(b1-4)GlcNAc(b1-3)Gal(b1-4)GlcNAc(b1-2)Man(a1-3)[Neu5Ac(a2-6)Gal(b1-4)GlcNAc(b1-3)Gal(b1-4)GlcNAc(b1-2)Man(a1-6)]GalNAc
# Outline: as §1
# [21] = molecular target: Neu5Ac(a2-6)Gal(b1-4)GlcNAc(b1-3)Gal(b1-4)GlcNAc(b1-3)Gal(b1-4)GlcNAc
# Outline: as §1
# [22] = molecular target: Neu5Ac(a2-6)Gal(b1-4)GlcNAc(b1-3)Gal(b1-4)GlcNAc(b1-3)Gal(b1-4)GlcNAc(b1-2)Man(a1-3)[Neu5Ac(a2-6)Gal(b1-4)GlcNAc(b1-3)Gal(b1-4)GlcNAc(b1-3)Gal(b1-4)GlcNAc(b1-2)Man(a1-6)]GalNAc
# Outline: as §1
binder,measurement,setting,value
PX14343B-bfa-546-20-546 (Bacteroides fragilis) (protein) CDLERYPLTDLSEETFWNSESNAELALTSLYRGSLTDGVEYNPSDWWSYHGMIMMEHLSDNAFDRRGENNPFFKISSGNLTADNAFIKRYWETSYKRIGYCNRFLVGIQNSSESEKKTRMIAEARFLRATQYFYLASYFKNVPLVENVLTGEEANNVTKTSQADILKWCVTEFTAAAADLPRFSAIPAGEAGRACKQAALAFLGRTCMLQKDWKSGAKAFHDIMELGDNAINANYQELFYPSTGTSNKENIFYIQYLENYLGTGLPQHALSAKDGGWSLVNPAADLYESYEFKDGTPFSYDDPRYDPSNLGKDRDPRLDYTIYYNGAIFMGTEYKMSPDYSAAKKEKLDYTSEASRTGFMMRKYFEESTPINDVQSANGLTPVIRYAEVLLGYLECLVEDNQTITQGILDETINAVRGRASVNMPPVTEVTPAKLREIVRHERRIELAMEGIRYWDIMRWGIAHEVLSQKIWGAPYPGSTQYATTTKEVDPTGNYRWYVGKRAFRNPTDYTWPIPQSEQNINPNLRD,glycan array binding signal (z-score),Neu5Ac(a2-6)Gal(b1-4)Glc,-0.122
same,glycan array binding signal (z-score),[1],-0.124
same,glycan array binding signal (z-score),[2],-0.112
same,glycan array binding signal (z-score),[3],-0.095
same,glycan array binding signal (z-score),[4],-0.123
same,glycan array binding signal (z-score),[5],-0.125
same,glycan array binding signal (z-score),[6],-0.117
same,glycan array binding signal (z-score),[7],-0.13
same,glycan array binding signal (z-score),[8],-0.127
same,glycan array binding signal (z-score),[9],-0.125
same,glycan array binding signal (z-score),[10],-0.116
same,glycan array binding signal (z-score),[11],-0.119
same,glycan array binding signal (z-score),[12],-0.096
same,glycan array binding signal (z-score),[13],-0.134
same,glycan array binding signal (z-score),[14],-0.125
same,glycan array binding signal (z-score),[15],-0.12
same,glycan array binding signal (z-score),[16],-0.137
same,glycan array binding signal (z-score),[17],-0.13
same,glycan array binding signal (z-score),[18],-0.114
same,glycan array binding signal (z-score),[19],-0.114
same,glycan array binding signal (z-score),[20],-0.127
same,glycan array binding signal (z-score),[21],-0.126
same,glycan array binding signal (z-score),[22],-0.114
